For part of these data: This list holds what a sample rich in hits left over. Inconclusive results are not listed. The list shows a part of the results, in another mix than the full data. Activity calls are given as the source filed them. How the source made its calls, unless noted: active means hit-call score of the fitted dose curve at least 0.9, where 1 is the maximum; inconclusive means response in the unintended direction; inactive means score below 0.9.

In test [1] the target is Retinoic acid receptor alpha (Homo sapiens) (UniProt P10276). As to the kind of experiment: ATG_RARa_TRANS: Attagene TRANS-FACTORIAL HepG2 Assay for human Retinoic Acid Receptor alpha (RARa) (AID 2283005). A digest of the protocol:
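HepG2 cells transiently transfected with multiple reporter units expressing chimeric RARα-GAL4 fusion, with GAL4-UAS-driven reporters. After 24 h compound exposure, reporter mRNA induction quantified by RT-PCR and capillary electrophoresis with fluorescent labeling; gain-of-signal fitted relative to DMSO control.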

For test [2], the target named is human Thyroid Receptor alpha (THRa1), THRA (gene 7067) (UniProt P10827). As to the kind of experiment: ATG_THRa1_TRANS: Attagene TRANS-FACTORIAL HepG2 Assay for human Thyroid Receptor alpha (THRa1) (AID 2283014). A digest of the protocol: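 Transient HepG2 transfection, NR-Gal4 chimera driving GAL4-UAS reporters; 24 h compound exposure; total RNA, oligo(dT) RT, PCR, fluorescent primer extension, capillary electrophoresis. Upward direction vs DMSO control.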

The target of test [3] is human Vitamin D Receptor (VDR), VDR (gene 7421) (UniProt P11473). As to the kind of experiment: ATG_VDR_TRANS: Attagene TRANS-FACTORIAL HepG2 Assay for human Vitamin D Receptor (VDR) (AID 2283022). A digest of the protocol:
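RT-PCR/capillary electrophoresis read-out of reporter mRNA induction in transiently transfected HepG2; 24 h dosing; chimeric NR-Gal4 (TRANS format); gain-of-signal fit against DMSO baseline.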

Test [4] can be described thus: ACEA_AR_antagonist_AUC_viability: ACEA Biosciences xCELLigence Real-Time Cell Analysis on Androgen Receptor Antagonism for Viability (AID 2283776).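 Further: 22Rv1 human prostate cancer cells growing on impedance electrode plates; area under impedance growth curve at 80 h after dosing as viability; hits lower the growth signal relative to DMSO meaning cytotoxicity.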 In outline:
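Impedance read-out (RT-CES): area under growth curve at 80 h post-dose, loss of signal scored vs DMSO baseline. 22Rv1 cells; 8-pt 1:4 series, top 100 uM final, ≤0.5% DMSO; biological duplicate.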

For test [5], the target named is human Peroxisome Proliferator-activated Receptor alpha (PPARa), PPARA (gene 5465) (UniProt Q07869). In words: ATG_PPARa_TRANS: Attagene TRANS-FACTORIAL HepG2 Assay for human Peroxisome Proliferator-activated Receptor alpha (PPARa) (AID 2283001).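 Further: potency for gain of reporter signal over DMSO so agonist or activator.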 In outline:
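Cells (HepG2) are transfected with multiple reporter transcription units, exposed to chemical for 24 h, then total RNA is reverse-transcribed and amplified. Labelled products are quantified by capillary electrophoresis; induction is referenced to DMSO.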

Test [6] is described as follows: BSK_3C_Proliferation: Cell Proliferation Assessment in the BioMAP Diversity Plus: 3C Assay (AID 2283006; active means hit-call score of the fitted dose curve at least 0.9, where 1 is the maximum; inactive means score below 0.9;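 further: potency may reflect either rise or fall in cell number versus DMSO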). To be noted: primary human endothelial cells (HUVEC). A digest of the protocol:
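Proliferation as total protein: sulforhodamine B (0.1%) stain of TCA-fixed subconfluent human umbilical vein endothelial cells, absorbance 560 nm, 48 h after dosing. Activity fitted in both directions against DMSO baseline.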

Test [7] is described as follows: BSK_LPS_PGE2: BioMAP Diversity Plus: LPS Assay for Prostaglandin E2 (PGE2) Biomarker Activity (AID 2283082; active means hit-call score of the fitted dose curve at least 0.9, where 1 is the maximum; inactive means score below 0.9;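 further: secreted prostaglandin E2 measured by ELISA in LPS-stimulated co-culture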). The note with it: actives raise or lower the signal; primary human HUVEC with PBMC. In outline:
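PGE2 release measured by ELISA in an LPS-activated co-culture of human umbilical vein endothelial cells and peripheral blood mononuclear cells, read at 24 h post-dosing. DMSO served as baseline for bidirectional curve fitting.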

`CC(C)c1ccc(O)c(C(C)C)c1`: the compound was classed as inactive in test [1], in test [2], in test [3] and in test [4].

Turning to `CC=Cc1ccc(O)c(OC)c1`, in test [1], the compound was classed as inactive.

In general, AC50 refers to the concentration giving half of the maximal activity seen. On to `CCCCCCCCCCN`, for which the AC50 in test [5] was active: 33.4 µM. Besides, the compound was called inactive in test [4].

With `COc1ccc(C(=O)c2ccccc2O)c(O)c1`, the concentration at half-maximal activity (AC50) in test [6] is active: 17.2 µM; in test [7], active: 13.3 µM.

For the origin of these results see PubChem BioAssay (EPA / NIEHS).
